# From the supplement of paper PMC10338343
# ± gives the standard deviation. This is a selection; strong and weak results do not stand in their true shares.
# System: MIWI (PIWIL1) piRISC loaded with L1MC piRNA (30 nt)
# Test: pre-steady-state target cleavage rate (min^-1); MIWI and MILI are mouse PIWI proteins and EfPiwi is from a freshwater sponge; tags in brackets are library labels; higher = faster piRNA-guided slicing of the target
# Settings: guide: L1MC piRNA 5'p-UAACUAAAUACUAUGCAAGCUGUAGGUCCU
# Procedure, shortened: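 At 33 °C in HEPES–potassium acetate buffer, a transcribed, DNA-blocked target RNA library […] was exposed for 0–8 or 0–960 min to 1 nM active affinity-purified piRISC carrying a single synthetic guide, with or without 500 nM GTSF1 partner protein. Uncleaved targets were sequenced and normalised to depth and to weakly complementary targets. With three trials pooled and k3 capped at 0.0001 min^-1, a burst-and-steady-state fit produced the pre-steady-state cleavage rate.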
# [1] = auxiliary factor: 500 nM mouse GTSF1
# [2] = auxiliary factor: none (no GTSF1)
# 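Further: 1 nM active piRISC with 0.1 nM target library at 33 °C single turnover.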
Sequence,pre-steady-state target cleavage rate [1],pre-steady-state target cleavage rate [2]
UCCACCUACAGCUUGCAUAGUAAUUUAGUUA,0.201 ± 0.028,0.00822 ± 0.0023
UCCUGGAUCAGGUUGCAUAGUAUUUUGUUA,0.302 ± 0.024,0.00654 ± 0.0026
UCCUGCUAGAGCUUGCAUAGUAUUAAGUUA,0.679 ± 0.067,0.0107 ± 0.0041
UGGACCUACAGCAAGCAUAGUAUUUAGUUA,1.34 ± 0.1,0.00929 ± 0.0027
UCCUGCUACAUGCUUGCAUAGUAUUUAGUUA,0.211 ± 0.031,0.0175 ± 0.0034
UCCUGGAUCAGCUUGCAUAGUAUUUAGUCUA,0.118 ± 0.019,0.00898 ± 0.0019
UCGACCUACAGCUUGCAUAGUAUUUAGAUUA,0.379 ± 0.023,0.0342 ± 0.0063
UCGACCUACAGCUUGCUUAGUAUUUAGAAA,0.422 ± 0.041,0.00332 ± 0.0022
AGGACCAUACAGCUUGCAUAGUAUUUAGUUA,1.06 ± 0.051,0.0829 ± 0.013
UCGACCUACAGCUUGCUUAGAAUUUAGUUA,0.264 ± 0.024,0.00705 ± 0.0021
UCCUGGUACAGCUUGCAUAGUAUCUUAGUUA,0.427 ± 0.051,0.0115 ± 0.0042
AGGACCUACAGCUUGCAUAGUUUUUUGUUA,0.316 ± 0.024,0.0319 ± 0.0071
UCCUGGAACAGCUUGCAUAGUAUUUAUGUUA,0.301 ± 0.025,0.0253 ± 0.0047
UGGACCUACAGCUUGGAAAGUAUUUAGUUA,1.03 ± 0.038,0.00647 ± 0.0024
UCCUGCUACAGCUUACAUAGUAUUUAGUUA,0.619 ± 0.04,0.0211 ± 0.0026
UCGACCUUCAGCUUGCAUACUAUUUAGUUA,0.376 ± 0.023,0.032 ± 0.007
AGGAGGAACAGCUUGCAUAGUAUUUAGAAA,0.385 ± 0.061,0.00865 ± 0.0029
UCCUGGUACAGCUUGCAAAGUAUUUACAAA,0.0891 ± 0.021,0.00374 ± 0.0025
UCCACCUACAGCAUGCAUAGUAUAUAGUUA,0.61 ± 0.048,0.0103 ± 0.0032
UCCUGCUACAGCUUGCAUAGAAUUUAGAUA,0.273 ± 0.042,0.00514 ± 0.0022
UCCUCCUACAGACUUGCAUAGUAUUUAGUUA,0.828 ± 0.057,0.0333 ± 0.006
UCGACCUACAGCUUGGAUAGUAUUUUGUUA,0.968 ± 0.064,0.044 ± 0.0084
UCCACCAACAGCUUGCAUAGUAUUUUGUUA,0.413 ± 0.042,0.0276 ± 0.0037
UCGACCUACAGCUUGCAUAAUAUUUAGUUA,0.672 ± 0.03,0.0408 ± 0.0074
AGGACCAACAGCUUGCAUAGUAUAUAGUUA,0.775 ± 0.054,0.0604 ± 0.013
UCCACCUAGAGCUUGCAUAGUAUUUAGAUA,0.178 ± 0.032,0.00955 ± 0.0025
UCCUGGAUGAGCUUGCACAGUAUUUAGUUA,0.983 ± 0.03,0.0642 ± 0.014
UCCACCUACAGCUUGCUUAGUAUUUACUUA,0.425 ± 0.044,0.0184 ± 0.0042

Sequence,pre-steady-state target cleavage rate [1],pre-steady-state target cleavage rate [2]
UCCUGCUACAGCUUGCAAAGUAUUUAGUAA,0.378 ± 0.039,0.0112 ± 0.003
AGGACCUACAGCUUGCAUUGUAUUUUGUUA,0.44 ± 0.025,0.0194 ± 0.004
UCCUGGAUCAGCGUUGCAUAGUAUUUAGUUA,0.781 ± 0.04,0.0189 ± 0.005
UCCACCUACAGCUUGCAUAGUAGUUAGUUA,0.383 ± 0.042,0.0181 ± 0.0033
UCCUGGAACAGCUUGCCUAGUAUUUAGUUA,1.13 ± 0.051,0.0521 ± 0.011
UGGACCUACUGCUUGCAUAGUAUUUUCAAA,0.0699 ± 0.011,0.00415 ± 0.0018
UCCUGGAUGAGCCUGCAUAGUAUUUAGUUA,0.712 ± 0.053,0.0388 ± 0.0088
UCCACGAACAGCUUGCAUAGUAUUUACAAA,0.324 ± 0.044,0.00348 ± 0.0024
UCGACGUACAGCUUGCAUAGUAAUUAGUUA,0.848 ± 0.033,0.0278 ± 0.0067
UCCUCCUACAGCUUGCAUAGUAUUGAGUUA,0.343 ± 0.031,0.0282 ± 0.0039
AGGACCUUGUGCUUGCAUAGUAUUUAGUUA,0.869 ± 0.046,0.0654 ± 0.012
AGGAGCUACAGGUUGCAUAGUAUUUAGUUA,1.17 ± 0.075,0.0502 ± 0.0084
UCCUGCUACAGCUUGCUUAGUAUUUAGUUA,0.987 ± 0.056,0.0337 ± 0.008
UCCUGGAUGUGCUUGCAUAGUUUUUUGUUA,0.0135 ± 0.0056,0.00432 ± 0.0033
UCCUGCAUCAGCUUGCAUAGUAUUUAGAAA,0.327 ± 0.033,0.00615 ± 0.0032
UGGACCUACAGUUGCAUAGUAUUUAGUUA,1.06 ± 0.094,0.00944 ± 0.0032
UCCUGGUACAGCAUGCAUAGUUUUUAGUUA,0.176 ± 0.04,0.0217 ± 0.0066
UCCUGGUACUGCUUGCAUAGUUUUUAGUUA,0.142 ± 0.028,0.0188 ± 0.0057
UGGACCUACAGCUUGCAAUGUAUUUAGUUA,0.452 ± 0.047,0.00626 ± 0.0029
UCCUGGAACAGGUUGCAUAGAAUUUAGUUA,0.342 ± 0.025,0.0148 ± 0.0049
UCCUGGAUGUGCUUGCAUAGUAUUUACUUA,0.114 ± 0.018,0.0211 ± 0.0042
UCCUGGAUCAGCUUGCUUAGUAUUUAGUUA,1.05 ± 0.06,0.0327 ± 0.0082
UCCUGGAUGUGCUUGCAUAGAAUUUAGUAA,0.0202 ± 0.0069,0.0041 ± 0.0025
UCCUGGUACAGGCUUGCAUAGUAUUUAGUUA,0.498 ± 0.059,0.0384 ± 0.0089
AGGACCUACAGCAUGCAUACUAUUUAGUUA,0.39 ± 0.023,0.0205 ± 0.0035
UCCACCUACAGCUUGCAUAGUAUUAAGAUA,0.282 ± 0.043,0.00446 ± 0.0035
UCCUGCUGCAGCUUGCAUAGUAUUUAGUUA,1.27 ± 0.058,0.0512 ± 0.011
